IC50 is the fitted dose that halves viability relative to control wells, and lower means more sensitive; fits outside the tested doses are given as limits. AUC sums up the same curve from the lowest dose to the 256-fold higher top dose; it is 1 without any effect and falls as sensitivity rises. For some assays here: Any top dose called inferred was derived from the fitted curves, not read from the paper. For some assays here: An entry number marks a drug with two screens in the source, which often give different values.
Key:
Assay in all cases: Viability of human cancer cell lines after 72 h of drug (GDSC screen)
[1] = compound: Cc1ccc(NC(=O)c2cccc(C(C)(C)C#N)c2)cc1Nc1ccc2ncn(C)c(=O)c2c1 [AZ628]; settings: top dose 4 µM; top dose inferred
Protocol: (§1)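 Human cancer cell lines in 384-well plates, medium with 10% serum, drug for 72 h over a 256-fold dose range (nine 2-fold or five 4-fold steps up to the top dose). Adherent lines were fixed and stained with the nucleic acid dye Syto60, suspension lines read with resazurin; signal relative to control wells, capped at 0 and 100%. One two-parameter sigmoid per drug and line, fitted in a mixed model over all curves with the slope shared within a line.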

[2] = compound: Nc1ccc(C(=O)Nc2cccc(-c3nc(N4CCOCC4)c4oc5ncccc5c4n3)c2)cn1 [YM201636]; settings: top dose 5.12 µM; top dose inferred
Protocol: as §1

[3] = compound: NC(=O)C1CCCc2c1[nH]c1ccc(Cl)cc21 [EX-527]; settings: top dose 20 µM
Protocol: as §1

[4] = compound: N#CC(c1ccnc(NCCc2cccnc2)n1)c1nc2ccccc2s1 [AS601245]; settings: top dose 8 µM; top dose inferred
Protocol: as §1

[5] = compound: Cn1cnc2c(F)c(Nc3ccc(Br)cc3Cl)c(C(=O)NOCCO)cc21 [AZD6244]; settings: top dose 4 µM; screen: GDSC drug entry 1498; top dose inferred
Protocol: as §1

| Cell Line | AUC [1] | IC50 [1] | AUC [2] | IC50 [2] | AUC [3] | IC50 [3] | AUC [4] | IC50 [4] | AUC [5] | IC50 [5] |
| --- | --- | --- | --- | --- | --- | --- | --- | --- | --- | --- |
| NCI-H226 (lung squamous cell carcinoma, adherent) | 0.963 | > 4 µM | 0.926 | > 5.12 µM | 0.98 | > 20 µM | 0.89 | > 8 µM | 0.913 | > 4 µM |
| NCI-H322M (lung adenocarcinoma, suspension) | 0.887 | > 4 µM | 0.96 | > 5.12 µM | 0.987 | > 20 µM | 0.987 | > 8 µM | 0.956 | > 4 µM |
| NCI-H345 (small cell lung carcinoma, suspension) | 0.99 | > 4 µM | 0.988 | > 5.12 µM | 0.988 | > 20 µM | 0.99 | > 8 µM | 0.981 | > 4 µM |
| NCI-H446 (small cell lung carcinoma, semi-adherent) | 0.985 | > 4 µM | 0.601 | 0.619 µM | 0.985 | > 20 µM | 0.979 | > 8 µM | 0.984 | > 4 µM |
| NCI-H524 (small cell lung carcinoma, suspension) | 0.969 | > 4 µM | 0.991 | > 5.12 µM | 0.989 | > 20 µM | 0.982 | > 8 µM | 0.99 | > 4 µM |
| NCI-H526 (small cell lung carcinoma, suspension) | 0.99 | > 4 µM | 0.875 | 4.65 µM | 0.986 | > 20 µM | 0.954 | > 8 µM | 0.986 | > 4 µM |
| NCI-H716 (large intestine, suspension) | 0.918 | > 4 µM | 0.865 | > 5.12 µM | 0.976 | > 20 µM | 0.969 | > 8 µM | 0.722 | 1.28 µM |
| NCI-H720 (lung carcinoid, suspension) | 0.915 | > 4 µM | 0.992 | > 5.12 µM | 0.992 | > 20 µM | 0.992 | > 8 µM | 0.984 | > 4 µM |
| NCI-H747 (large intestine, adherent) | 0.573 | 0.415 µM | 0.864 | > 5.12 µM | 0.977 | > 20 µM | 0.853 | > 8 µM | 0.431 | 0.155 µM |
| NCI-H847 (small cell lung carcinoma, adherent) | 0.982 | > 4 µM | 0.788 | 1.79 µM | 0.986 | > 20 µM | 0.757 | 2.29 µM | 0.987 | > 4 µM |
| NCI-H1092 (small cell lung carcinoma, suspension) | 0.973 | > 4 µM | 0.945 | > 5.12 µM | 0.989 | > 20 µM | 0.944 | > 8 µM | 0.988 | > 4 µM |
| NCI-H1155 (large cell lung carcinoma, suspension) | 0.983 | > 4 µM | 0.894 | 4.24 µM | 0.985 | > 20 µM | 0.979 | > 8 µM | 0.983 | > 4 µM |
| NCI-H1299 (large cell lung carcinoma, adherent) | 0.933 | > 4 µM | 0.955 | > 5.12 µM | 0.98 | > 20 µM | 0.724 | 2.55 µM | 0.817 | 2.91 µM |
| NCI-H1304 (small cell lung carcinoma, suspension) | 0.979 | > 4 µM | 0.987 | > 5.12 µM | 0.981 | > 20 µM | 0.971 | > 8 µM | 0.972 | > 4 µM |
| NCI-H1355 (lung adenocarcinoma, adherent) | 0.881 | > 4 µM | 0.959 | > 5.12 µM | 0.977 | > 20 µM | 0.587 | 0.962 µM | 0.669 | 0.918 µM |
| NCI-H1395 (lung adenocarcinoma, adherent) | 0.9 | > 4 µM | 0.881 | > 5.12 µM | 0.979 | > 20 µM | 0.959 | > 8 µM | 0.956 | > 4 µM |
| NCI-H1417 (small cell lung carcinoma, suspension) | 0.947 | > 4 µM | 0.864 | > 5.12 µM | 0.979 | > 20 µM | 0.96 | > 8 µM | 0.54 | 0.329 µM |
| NCI-H1436 (small cell lung carcinoma, suspension) | 0.972 | > 4 µM | 0.91 | > 5.12 µM | 0.927 | > 20 µM | 0.946 | > 8 µM | 0.95 | > 4 µM |
| NCI-H1581 (large cell lung carcinoma, semi-adherent) | 0.918 | > 4 µM | 0.915 | > 5.12 µM | 0.985 | > 20 µM | 0.96 | > 8 µM | 0.951 | > 4 µM |
| NCI-H1648 (lung adenocarcinoma, adherent) | 0.638 | 0.619 µM | 0.9 | > 5.12 µM | 0.978 | > 20 µM | 0.785 | 3.64 µM | 0.968 | > 4 µM |
| NCI-H1666 (lung adenocarcinoma, semi-adherent) | 0.884 | > 4 µM | 0.926 | > 5.12 µM | 0.974 | > 20 µM | 0.987 | > 8 µM | 0.436 | 0.164 µM |
| NCI-H1694 (small cell lung carcinoma, suspension) | 0.989 | > 4 µM | 0.932 | > 5.12 µM | 0.987 | > 20 µM | 0.968 | > 8 µM | 0.988 | > 4 µM |
| NCI-H1770 (non-small cell lung carcinoma, suspension) | 0.98 | > 4 µM | 0.971 | > 5.12 µM | 0.99 | > 20 µM | 0.835 | 4.38 µM | 0.99 | > 4 µM |
| NCI-H1836 (small cell lung carcinoma, suspension) | 0.972 | > 4 µM | 0.973 | > 5.12 µM | 0.988 | > 20 µM | 0.973 | > 8 µM | 0.977 | > 4 µM |

| Cell Line | AUC [1] | IC50 [1] | AUC [2] | IC50 [2] | AUC [3] | IC50 [3] | AUC [4] | IC50 [4] | AUC [5] | IC50 [5] |
| --- | --- | --- | --- | --- | --- | --- | --- | --- | --- | --- |
| NCI-H1838 (lung adenocarcinoma, adherent) | 0.924 | > 4 µM | 0.975 | > 5.12 µM | 0.98 | > 20 µM | 0.973 | > 8 µM | 0.955 | > 4 µM |
| NCI-H1869 (lung squamous cell carcinoma, adherent) | 0.966 | > 4 µM | 0.942 | > 5.12 µM | 0.984 | > 20 µM | 0.793 | 4.2 µM | 0.858 | 3.98 µM |
| NCI-H1876 (small cell lung carcinoma, adherent) | 0.967 | > 4 µM | 0.912 | > 5.12 µM | 0.987 | > 20 µM | 0.982 | > 8 µM | 0.979 | > 4 µM |
| NCI-H1975 (lung adenocarcinoma, adherent) | 0.922 | > 4 µM | 0.881 | > 5.12 µM | 0.982 | > 20 µM | 0.652 | 1.41 µM | 0.89 | > 4 µM |
| NCI-H2081 (small cell lung carcinoma, suspension) | 0.984 | > 4 µM | 0.989 | > 5.12 µM | 0.981 | > 20 µM | 0.944 | > 8 µM | 0.975 | > 4 µM |
| NCI-H2135 (non-small cell lung carcinoma, adherent) | 0.688 | 0.824 µM | 0.884 | > 5.12 µM | 0.985 | > 20 µM | 0.9 | > 8 µM | 0.99 | > 4 µM |
| NCI-H2141 (small cell lung carcinoma, suspension) | 0.989 | > 4 µM | 0.989 | > 5.12 µM | 0.99 | > 20 µM | 0.952 | > 8 µM | 0.988 | > 4 µM |
| NCI-H2227 (small cell lung carcinoma, semi-adherent) | 0.982 | > 4 µM | 0.8 | 2.86 µM | 0.986 | > 20 µM | 0.983 | > 8 µM | 0.979 | > 4 µM |
| NCI-SNU-1 (stomach, suspension) | 0.592 | 0.451 µM | 0.771 | 2.02 µM | 0.982 | > 20 µM | 0.875 | > 8 µM | 0.962 | > 4 µM |
| NCI-SNU-5 (stomach, suspension) | 0.845 | 2.95 µM | 0.989 | > 5.12 µM | 0.987 | > 20 µM | 0.939 | > 8 µM | 0.926 | > 4 µM |
| NEC8 (testis, adherent) | 0.845 | 2.27 µM | 0.857 | 3.2 µM | 0.99 | > 20 µM | 0.901 | 7.6 µM | 0.978 | > 4 µM |
| NH-12 (neuroblastoma, adherent) | 0.965 | > 4 µM | 0.764 | 2.07 µM | 0.972 | > 20 µM | 0.89 | > 8 µM | 0.916 | > 4 µM |
| NKM-1 (acute myeloid leukaemia, suspension) | 0.645 | 0.636 µM | 0.698 | 1.17 µM | 0.984 | > 20 µM | 0.74 | 2.5 µM | 0.835 | 2.73 µM |
| NMC-G1 (glioma, adherent) | 0.972 | > 4 µM | 0.878 | > 5.12 µM | 0.968 | > 20 µM | 0.817 | 5.85 µM | 0.642 | 0.677 µM |
| NOMO-1 (acute myeloid leukaemia, suspension) | 0.69 | 0.924 µM | 0.863 | > 5.12 µM | 0.946 | > 20 µM | 0.9 | > 8 µM | 0.442 | 0.17 µM |
| NOS-1 (osteosarcoma, adherent) | 0.367 | 0.0985 µM | 0.787 | 2.8 µM | 0.98 | > 20 µM | 0.783 | 4.2 µM | 0.902 | > 4 µM |
| NTERA-2 cl.D1 (testis, adherent) | 0.928 | > 4 µM | 0.914 | > 5.12 µM | 0.985 | > 20 µM | 0.872 | 7.52 µM | 0.942 | > 4 µM |
| NU-DUL-1 (B-cell lymphoma, suspension) | 0.879 | 2.74 µM | 0.576 | 0.494 µM | 0.989 | > 20 µM | 0.874 | 5.27 µM | 0.992 | > 4 µM |
| OCI-AML2 (acute myeloid leukaemia, suspension) | 0.118 | 0.0258 µM | 0.868 | 2.81 µM | 0.963 | > 20 µM | 0.843 | 3.69 µM | 0.068 | 0.0167 µM |
| OCI-AML3 (acute myeloid leukaemia, suspension) | 0.558 | 0.351 µM | 0.847 | 2.98 µM | 0.985 | > 20 µM | 0.949 | > 8 µM | 0.239 | 0.0506 µM |
| OCI-AML5 (acute myeloid leukaemia, suspension) | 0.55 | 0.337 µM | 0.841 | 3.11 µM | 0.988 | > 20 µM | 0.937 | > 8 µM | 0.803 | 1.79 µM |
| OCI-LY-19 (B-cell lymphoma, suspension) | 0.636 | 0.575 µM | 0.736 | 1.41 µM | 0.985 | > 20 µM | 0.849 | 5.29 µM | 0.883 | 3.7 µM |
| OCI-M1 (acute myeloid leukaemia, suspension) | 0.967 | > 4 µM | 0.884 | 3.31 µM | 0.992 | > 20 µM | 0.9 | 5.89 µM | 0.971 | > 4 µM |
